For the test, the system named is H929 cells. As to the kind of experiment: cells. Conditions: Homo sapiens, NCI-H929, 24 h, read-out: H929 viability EC50.

With `CN(C)CCCCNc1cc(-c2ccc3ncn(Cc4cccc(F)c4)c3c2)c(Cl)cn1` [Example 55, N′-{5-chloro-4-[1-(3-fluorobenzyl)-1H-benzimidazol-6-yl]pyridin-2-yl}-N,N-dimethylbutane-1,4-diamine], the EC50 – broadly, the concentration needed to bring the measured effect to its halfway point – worked out at 860 nM.

Take `CN1CCC(CNc2cc(-c3ccc4ncn(Cc5cccc(F)c5)c4c3)c(Cl)cn2)CC1` [Example 56, 5-chloro-4-[1-(3-fluorobenzyl)-1H-benzimidazol-6-yl]-N-[(1-methylpiperidin-4-yl)methyl]pyridin-2-amine]: the EC50 was 440 nM. Regarding `Fc1cccc(Cn2cnc3ccc(-c4cc(NCCc5ccccn5)ncc4Cl)cc32)c1` [Example 58, 5-chloro-4-[1-(3-fluorobenzyl)-1H-benzimidazol-6-yl]-N-[2-(pyridin-2-yl)ethyl]pyridin-2-amine], the EC50 is 3100 nM.

`CC(C)(O)CCNc1cc(-c2ccc3ncn(Cc4cccc(F)c4)c3c2)c(Cl)cn1` [Example 59, 4-({5-chloro-4-[1-(3-fluorobenzyl)-1H-benzimidazol-6-yl]pyridin-2-yl}amino)-2-methylbutan-2-ol]: the EC50 was 840 nM. To `Fc1cccc(Cn2cnc3ccc(-c4cc(NCCc5ccncc5)ncc4Cl)cc32)c1` [Example 62, 5-chloro-4-[1-(3-fluorobenzyl)-1H-benzimidazol-6-yl]-N-[2-(pyridin-4-yl)ethyl]pyridin-2-amine] belongs 3200 nM.

For the molecule `Fc1cccc(Cn2cnc3ccc(-c4cc(NCCNc5ccccc5)ncc4Cl)cc32)c1` [Example 66, N-{5-chloro-4-[1-(3-fluorobenzyl)-1H-benzimidazol-6-yl]pyridin-2-yl}-N′-phenylethane-1,2-diamine], the EC50 is 2600 nM. As for `CN(C)CC(C)(C)CNc1cc(-c2ccc3ncn(Cc4cccc(F)c4)c3c2)c(Cl)cn1` [Example 67, N′-{5-chloro-4-[1-(3-fluorobenzyl)-1H-benzimidazol-6-yl]pyridin-2-yl}-N,N,2,2-tetramethylpropane-1,3-diamine], the EC50 stood at 3000 nM.

`OCCNc1cc(-c2ccc3ncn(Cc4cccc(F)c4)c3c2)c(Cl)cn1` [Example 68, 2-({5-chloro-4-[1-(3-fluorobenzyl)-1H-benzimidazol-6-yl]pyridin-2-yl}amino)ethanol]: the EC50 came out at 620 nM. Turning to `Nc1ccc(CCNc2cc(-c3ccc4ncn(Cc5cccc(F)c5)c4c3)c(Cl)cn2)cc1` [Example 75, N-[2-(4-aminophenyl)ethyl]-5-chloro-4-[1-(3-fluorobenzyl)-1H-benzimidazol-6-yl]pyridin-2-amine], the EC50 came out at 1700 nM. Then `CC(C)(CN)CNc1cc(-c2ccc3ncn(Cc4cccc(F)c4)c3c2)c(Cl)cn1` [Example 76, N-{5-chloro-4-[1-(3-fluorobenzyl)-1H-benzimidazol-6-yl]pyridin-2-yl}-2,2-dimethylpropane-1,3-diamine], with 1600 nM; and `NCc1ccc(CNc2cc(-c3ccc4ncn(Cc5cccc(F)c5)c4c3)c(Cl)cn2)cc1` [Example 78, N-[4-(aminomethyl)benzyl]-5-chloro-4-[1-(3-fluorobenzyl)-1H-benzimidazol-6-yl]pyridin-2-amine], with 9300 nM.

Turning to `CC(C)(O)CNc1cc(-c2ccc3ncn(Cc4cccc(F)c4)c3c2)c(Cl)cn1` [Example 79, 1-({5-chloro-4-[1-(3-fluorobenzyl)-1H-benzimidazol-6-yl]pyridin-2-yl}amino)-2-methylpropan-2-ol], the EC50 stood at 720 nM. As to `NCC(O)CNc1cc(-c2ccc3ncn(Cc4cccc(F)c4)c3c2)c(Cl)cn1` (stereo not shown) [Example 80, 1-amino-3-({5-chloro-4-[1-(3-fluorobenzyl)-1H-benzimidazol-6-yl]pyridin-2-yl}amino)propan-2-ol], the EC50 stood at 3600 nM. `Fc1cccc(Cn2cnc3ccc(-c4cc(NCCNc5ccccn5)ncc4Cl)cc32)c1` [Example 81, N-{5-chloro-4-[1-(3-fluorobenzyl)-1H-benzimidazol-6-yl]pyridin-2-yl}-N′-(pyridin-2-yl)ethane-1,2-diamine]: the EC50 was 1600 nM.

As to `Cc1nnc(Cn2cnc3ccc(-c4cc(NC(=O)[C@@H]5CCCNC5)ncc4Cl)cc32)s1` [Example 89, (3R)—N-(5-chloro-4-{1-[(5-methyl-1,3,4-thiadiazol-2-yl)methyl]-1H-benzimidazol-6-yl}pyridin-2-yl)piperidine-3-carboxamide], the EC50 worked out at 2400 nM. On to `O=C(Nc1cc(-c2ccc3ncn(CCc4cccnc4)c3c2)c(Cl)cn1)[C@@H]1CCCNC1` [Example 90, (3R)—N-(5-chloro-4-{1-[2-(pyridin-3-yl)ethyl]-1H-benzimidazol-6-yl}pyridin-2-yl)piperidine-3-carboxamide], for which the EC50 came out at 1700 nM.

Regarding `CNCCCCNc1cc(-c2ccc3ncn(Cc4cccc(F)c4)c3c2)c(Cl)cn1` [Example 93, N-{5-chloro-4-[1-(3-fluorobenzyl)-1H-benzimidazol-6-yl]pyridin-2-yl}-N′-methylbutane-1,4-diamine], the EC50 was found to be 530 nM. As for `Fc1cccc(Cn2cnc3ccc(-c4cc(NCCC5CCNCC5)ncc4Cl)cc32)c1` [Example 95, 5-chloro-4-[1-(3-fluorobenzyl)-1H-benzimidazol-6-yl]-N-[2-(piperidin-4-yl)ethyl]pyridin-2-amine], the EC50 worked out at 610 nM.

Take `Fc1cccc(Cn2cnc3ccc(-c4cc(NCCC5CCCNC5)ncc4Cl)cc32)c1` (stereo not shown) [Example 96, 5-chloro-4-[1-(3-fluorobenzyl)-1H-benzimidazol-6-yl]-N-[2-(piperidin-3-yl)ethyl]pyridin-2-amine]: the EC50 amounted to 420 nM. As for `Fc1cccc(Cn2cnc3ccc(-c4cc(NCCC5CCN5)ncc4Cl)cc32)c1` (stereo not shown) [Example 100, N-[2-(azetidin-2-yl)ethyl]-5-chloro-4-[1-(3-fluorobenzyl)-1H-benzimidazol-6-yl]pyridin-2-amine], the EC50 amounted to 5000 nM. In the case of `Fc1cccc(Cn2cnc3ccc(-c4cc(N[C@@H]5CCC[C@H]6CCNC[C@H]65)ncc4Cl)cc32)c1` [Example 101, (4aS,8R,8aS)—N-{5-chloro-4-[1-(3-fluorobenzyl)-1H-benzimidazol-6-yl]pyridin-2-yl}decahydroisoquinolin-8-amine], the EC50 was 3300 nM. In the case of `Fc1cccc(Cn2cnc3ccc(-c4cc(NCCC5CCCN5)ncc4Cl)cc32)c1` (stereo not shown) [Example 102, 5-chloro-4-[1-(3-fluorobenzyl)-1H-benzimidazol-6-yl]-N-[2-(pyrrolidin-2-yl)ethyl]pyridin-2-amine], the EC50 worked out at 3100 nM. Consider `Fc1cccc(Cn2cnc3ccc(-c4cc(NC5CCC56CCNCC6)ncc4Cl)cc32)c1` (stereo not shown) [Example 106, N-{5-chloro-4-[1-(3-fluorobenzyl)-1H-benzimidazol-6-yl]pyridin-2-yl}-7-azaspiro[3.5]nonan-1-amine], for which the EC50 was 1700 nM. To `Fc1cccc(Cn2cnc3ccc(-c4cc(NCC5CNCC5F)ncc4Cl)cc32)c1` (stereo not shown) [Example 108, 5-chloro-4-[1-(3-fluorobenzyl)-1H-benzimidazol-6-yl]-N-[(4-fluoropyrrolidin-3-yl)methyl]pyridin-2-amine] belongs 1700 nM; to `O=C(Nc1cc(-c2ccc3nnn(Cc4cccc(F)c4)c3c2)c(Cl)cn1)[C@@H]1CCCNC1` [Example 110, (3R)—N-{5-chloro-4-[1-(3-fluorobenzyl)-1H-benzotriazol-6-yl]pyridin-2-yl}piperidine-3-carboxamide], 460 nM; to `CS(=O)(=O)CCn1cnc2ccc(-c3cc(NC(=O)[C@@H]4CCCNC4)ncc3Cl)cc21` [Example 111, (3R)—N-(5-chloro-4-{1-[2-(methylsulfonyl)ethyl]-1H-benzimidazol-6-yl}pyridin-2-yl)piperidine-3-carboxamide], 1100 nM. As for `CS(=O)(=O)CCn1nnc2ccc(-c3cc(NC(=O)[C@@H]4CCCNC4)ncc3Cl)cc21` [Example 112, (3R)—N-(5-chloro-4-{1-[2-(methylsulfonyl)ethyl]-1H-benzotriazol-6-yl}pyridin-2-yl)piperidine-3-carboxamide], the EC50 came out at 3500 nM.

Turning to `O=C(Nc1cc(-c2ccc3nnn(Cc4ccc(F)cc4)c3c2)c(Cl)cn1)[C@@H]1CCCNC1` [Example 113, (3R)—N-{5-chloro-4-[1-(4-fluorobenzyl)-1H-benzotriazol-6-yl]pyridin-2-yl}piperidine-3-carboxamide], the EC50 was 440 nM. For the molecule `O=C(Nc1cc(-c2ccc3nnn(Cc4ccc(F)c(F)c4)c3c2)c(Cl)cn1)[C@@H]1CCCNC1` [Example 114, (3R)—N-{5-chloro-4-[1-(3,4-difluorobenzyl)-1H-benzotriazol-6-yl]pyridin-2-yl}piperidine-3-carboxamide], the EC50 was 310 nM.

Regarding `Cc1ccc(C2(CCNc3cc(-c4ccc5ncn(Cc6cccc(F)c6)c5c4)c(Cl)cn3)CCNCC2)cc1` [Example 117, 5-chloro-4-[1-(3-fluorobenzyl)-1H-benzimidazol-6-yl]-N-{2-[4-(4-methylphenyl)piperidin-4-yl]ethyl}pyridin-2-amine], the EC50 was 1500 nM. Then `COc1ccc(C2(CCNc3cc(-c4ccc5ncn(Cc6cccc(F)c6)c5c4)c(Cl)cn3)CCNCC2)cc1` [Example 118, 5-chloro-4-[1-(3-fluorobenzyl)-1H-benzimidazol-6-yl]-N-{2-[4-(4-methoxyphenyl)piperidin-4-yl]ethyl}pyridin-2-amine], with 1700 nM; and `Fc1cccc(Cn2cnc3ccc(-c4cc(NCC5(F)CCNCC5)ncc4Cl)cc32)c1` [Example 119, 5-chloro-4-[1-(3-fluorobenzyl)-1H-benzimidazol-6-yl]-N-[(4-fluoropiperidin-4-yl)methyl]pyridin-2-amine], with 1500 nM; and `COc1ccc(C2(CCNc3cc(-c4ccc5ncn(Cc6cccc(F)c6)c5c4)c(Cl)cn3)CCNC2)cc1` (stereo not shown) [Example 120, 5-chloro-4-[1-(3-fluorobenzyl)-1H-benzimidazol-6-yl]-N-{2-[3-(4-methoxyphenyl)pyrrolidin-3-yl]ethyl}pyridin-2-amine], with 1300 nM.

As for `Fc1cccc(Cn2cnc3ccc(-c4cc(NC5CCC56CCNC6)ncc4Cl)cc32)c1` (stereo not shown) [Example 121, N-{5-chloro-4-[1-(3-fluorobenzyl)-1H-benzimidazol-6-yl]pyridin-2-yl}-6-azaspiro[3.4]octan-1-amine], the EC50 worked out at 2300 nM.

Source of the values: US9650358B2 (priority 2013, dated 2017).
